Assay results taken from the supplement of paper PMC7335073.
Whole data set: some 4,100 sequences, median “relative CpG methylation activity (normalised to average over all NNNCGNNN flanks)” near 0.94, cut for the highest 2% near 1.9. The list shows a part of the results.

These sequences were tested against DNMT3B catalytic domain (mouse) (UniProt O88509) (assay: relative CpG methylation activity (normalised to average over all NNNCGNNN flanks) (relative (1 = mean)); higher = more methylation of the central CpG). Conditions: system: in vitro, murine catalytic domain; CpG state: hemimethylated substrate pool; residues: 558-859.
Method in brief: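 For Illumina sequencing, DNA was processed by proteinase K, BsaI-HFv2 digestion, hairpin ligation, bisulfite conversion and two-step PCR after methylation by murine DNMT3A or DNMT3B catalytic domain. The methylation reaction contained 0.8 mM S-adenosyl-L-methionine in HEPES pH 7.5 buffer and ran at 37 °C for 60 min on pooled dsDNA substrates with a central CpG inside 10 random flanking nucleotides. Relative methylation activity was computed as the average methylation of each flanking context divided by the mean over all contexts. Contexts covered three flanking bases per side, and there were two independent repeats per experiment.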

UniProt O88509, sequence (O88509 558-859): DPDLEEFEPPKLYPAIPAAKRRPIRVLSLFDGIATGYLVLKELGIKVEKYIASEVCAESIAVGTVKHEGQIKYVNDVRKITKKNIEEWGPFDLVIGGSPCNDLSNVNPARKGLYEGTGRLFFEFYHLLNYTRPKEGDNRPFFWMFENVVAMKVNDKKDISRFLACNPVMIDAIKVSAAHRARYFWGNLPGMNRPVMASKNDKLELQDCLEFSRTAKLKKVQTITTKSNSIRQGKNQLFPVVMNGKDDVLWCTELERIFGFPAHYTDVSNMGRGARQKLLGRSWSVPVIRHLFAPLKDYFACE

Row | Sequence | relative CpG methylation activity
1 | TCACGAAG | 1.09
2 | ATACGATA | 2.03
3 | CTCCGCCA | 1.15
4 | CAGCGTTT | 0.45
5 | CCCCGCGA | 0.66
6 | CCTCGATG | 1.19
7 | ACACGCTG | 1.11
8 | CGCCGTCC | 0.86
9 | AGTCGTGA | 0.198
10 | AGCCGAGT | 0.765
11 | GGTCGGAT | 0.427
12 | GCGCGCAA | 0.357
13 | AAACGCAG | 0.838
14 | TTACGACG | 1.68
15 | TGTCGGCT | 1.48
16 | CCACGCGC | 1.32
17 | TAGCGTCT | 0.609
18 | CGACGCTT | 0.811
19 | AATCGGCC | 1.88
20 | AGGCGTAA | 0.335
21 | CCACGGCA | 1.74
22 | ACCCGACG | 1.21
23 | AGCCGTTG | 0.111
24 | GGGCGGGG | 0.765
25 | TGACGTAT | 0.762

Row | Sequence | relative CpG methylation activity
26 | CACCGAAA | 1.15
27 | AGACGTCA | 0.88
28 | AATCGTGT | 0.159
29 | ACTCGGCT | 1.95
30 | GGCCGGCC | 0.963
31 | ATGCGACA | 1.19
32 | CTACGTCC | 1.76
33 | GGGCGTCC | 0.743
34 | ACACGGGT | 1.53
35 | GACCGGCA | 1.1
36 | ACACGCCC | 1.48
37 | GATCGCAG | 0.309
38 | GTTCGTTA | 0.328
39 | GGCCGAGA | 1.1
40 | AATCGTAT | 0.334
41 | GATCGCCA | 0.73
42 | TGTCGGAA | 0.694
43 | GACCGGAA | 0.676
44 | CTTCGACA | 1.71
45 | ATGCGCAC | 0.928
46 | TATCGCGT | 0.595
47 | GCCCGGGC | 1.54
48 | ACCCGTCT | 0.608
49 | CCGCGCTG | 0.794
50 | TCCCGACT | 1.66

Row | Sequence | relative CpG methylation activity
51 | TATCGGGT | 1.67
52 | GAACGCTG | 1.08
53 | TACCGGCT | 1.21
54 | TTACGCGG | 1.62
55 | ACACGTAC | 1.39
56 | CAACGGTC | 1.82
57 | TAACGTCG | 1.09
58 | TTTCGTAT | 0.535
59 | TCTCGCCA | 0.703
60 | GGTCGGAA | 0.435
61 | ATCCGGGA | 1.5
62 | AGACGAAC | 1.48
63 | CGGCGCTA | 0.358
64 | TCCCGGCA | 1.62
65 | GGGCGAGG | 0.551
66 | ATACGGCG | 2.11
67 | TCTCGACT | 1.32
68 | ATGCGGCC | 1.47
69 | ACACGGCT | 1.89
70 | GATCGTTA | 0.215
71 | GAGCGTGT | 0.237
72 | CGCCGCTT | 0.513
73 | GTCCGTCG | 0.607
74 | TTGCGGAA | 0.97
75 | TATCGGGA | 1.33

Row | Sequence | relative CpG methylation activity
76 | GCGCGAAG | 0.727
77 | ACCCGCTT | 0.897
78 | TTCCGGTG | 1.7
79 | GTACGCCA | 1.65
80 | TAGCGGCA | 1.41
81 | CAACGGTA | 1.6
82 | ACACGTGC | 0.885
83 | TGGCGGCG | 1.11
84 | CTGCGTAC | 1.38
85 | AATCGATT | 1.59
86 | CACCGCAC | 0.493
87 | TATCGTAA | 0.305
88 | GATCGGTC | 1.32
89 | CGGCGGGG | 0.4
90 | GGACGAAC | 1.14
91 | GCCCGAGA | 1.79
92 | CCTCGTTG | 0.336
93 | TGCCGTCA | 0.377
94 | CAACGGTT | 1.37
95 | CTGCGCAC | 0.831
96 | GGGCGATC | 1.12
97 | AAGCGCTT | 0.656
98 | TGTCGCGG | 0.583
99 | ATCCGGTG | 1.06
100 | CAGCGCCG | 0.755

Row | Sequence | relative CpG methylation activity
101 | TGCCGGGA | 0.822
102 | TTGCGATC | 1.63
103 | GAGCGGAT | 0.741
104 | AATCGCCA | 0.719
105 | TCCCGAAA | 1.18
106 | CGACGTTA | 0.664
107 | CCACGTCT | 1.15
108 | ACTCGAAA | 1.28
109 | AGACGAAG | 1.12
110 | CGACGATA | 1.38
111 | ATTCGTAT | 0.377
112 | GCCCGGAG | 0.646
113 | GCCCGGCT | 1.4
114 | CGCCGCTG | 0.176
115 | TGTCGCTC | 0.838
116 | TTCCGGCC | 1.67
117 | AGTCGGGT | 1.16
118 | GCACGCGA | 0.765
119 | CCGCGGAT | 0.712
120 | GTGCGGGG | 1.06
121 | GCGCGAGC | 1.55
122 | AGTCGCGA | 0.346
123 | AGTCGTCT | 0.556
124 | CCGCGTGC | 0.56
125 | TTACGCTG | 1.66

Row | Sequence | relative CpG methylation activity
126 | CACCGCGG | 0.304
127 | TTCCGTGG | 0.321
128 | AGCCGATC | 1.21
129 | TGCCGAGA | 1.52
130 | ACTCGTAG | 0.333
131 | GCTCGGCG | 1.53
132 | GGCCGGGC | 0.979
133 | GACCGACG | 0.943
134 | GCTCGTGA | 0.377
135 | CTTCGTCG | 0.828
136 | CCTCGGTC | 1.3
137 | TGCCGTAG | 0.147
138 | TGTCGCTA | 0.715
139 | GAGCGGGA | 0.973
140 | CTCCGTGA | 0.787
141 | TTACGCTA | 1.71
142 | AACCGTCG | 0.251
143 | CATCGTGC | 0.699
144 | AACCGTCC | 0.606
145 | AGACGATG | 1.19
146 | ATCCGACA | 1.43
147 | TGCCGTCT | 0.354
148 | GCTCGGTT | 1.28
149 | ATACGGGA | 1.66
150 | ACCCGACA | 1.34

Row | Sequence | relative CpG methylation activity
151 | TGGCGGTG | 0.571
152 | GTGCGCTC | 1.47
153 | CCTCGGGG | 0.833
154 | CGCCGCGG | 0.227
155 | TAGCGCAA | 0.42
156 | AATCGAAT | 1.3
157 | CTACGGAT | 1.41
158 | CAACGAAT | 1.41
159 | TAACGCTG | 1.35
160 | CGACGCGA | 0.549
161 | CATCGTGT | 0.414
162 | ACGCGGAC | 0.836
163 | CCACGCCA | 1.27
164 | CGGCGCGA | 0.254
165 | ACCCGATA | 1.52
166 | TCTCGCAA | 0.445
167 | TGCCGAGT | 1.25
168 | AGCCGTCC | 0.433
169 | AAGCGATT | 1.16
170 | ATGCGGCT | 1.55
171 | TTGCGCGT | 0.854
172 | TATCGTCA | 0.499
